Measurements reported in the RNAGym collection of RNA variant scans (doi:10.1093/nar/gkz1192).
Read counts are not given, so values of variants with three or more changes are uncertain.

B1: CPEB3 Ribozyme (parent)
chain: UAACAGGGGGCCACAGCAGAAGCGUUCACGUCGCAGCCCCUGUCAGAUUCUGGUGAAUCUGCGAAUUCUGCUGUAUAUCUC

Variants of: B1
Test: self-cleavage, relative activity (ratio to wild type); higher = more cleavage; in vitro, sequencing
Method in brief: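 CPEB3 self-cleaving ribozyme mutant libraries were made by rounds of error-prone PCR, barcoded, and transcribed in vitro with T7 RNA polymerase for 5 hours at 37°C. Cleavage occurred during transcription and a 15 min DNase I step before EDTA stop. RNAs were reverse transcribed with template switching and Illumina-sequenced, with DNA sequencing mapping barcodes to variants. Relative activity is the variant's cleaved/total read fraction divided by wild type's (minimum 5 reads), averaged across three batches.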
UAACAGGGGGCCACAGCAGAAGCGUUCACGCCGCAGCCCCUGUCAGAUUCUGGUGAAUCUGCUAAUUCUGCUGUAUAUCCC [U31C G63U U80C] gave a self-cleavage of 1.01. In the case of UAACAGGGGGCCACAGCAGAAGCGUUCACGCCGCAGCCCCAGUCAGAUUCUGGUGAAUCUGGGAAUUCCGCUGUAUAUCUC [U31C U41A C62G U69C], the self-cleavage is reported as 0.08. Variant UAACAGGGGGCCACAGCAGAAGCGUUCACGCCGCAGCCCCAGUCAGAUACUGGUGAAUCUGCGAAUUCUGCUGUAUAUCUC [U31C U41A U49A] has a self-cleavage of 0.27. With UAACAGGGGGCCACAGCAGAAGCGUUCACGCCGCAGCCCCAGUCAGAUUCUGGUGAAUCUGCGAAUUCUGCUGUAUAUCGC [U31C U41A U80G] the self-cleavage was 0.11. UAACAGGGGGCCACAGCAGAAGCGUUCACGCCGCAGCCCCCGUCAGGUUCUGGUGAAUCUGCGAAUUCUGCUGCAUAUCUC [U31C U41C A47G U74C] gave a self-cleavage of 1.16. UAACAGGGGGCCACAGCAGAAGCGUUCACGCCGCAGCCCCCGUCAGUUUCUGGUGAAUCUGCGAAUUCUGCAGUAUACCUC [U31C U41C A47U U72A U78C] showed a self-cleavage of 0.12. UAACAGGGGGCCACAGCAGAAGCGUUCACGCCGCAGCCCCCGUCAGAUUCUGGUGAGUCUGUGAAUUCUGCUGUAUAUCUC [U31C U41C A57G C62U] gave a self-cleavage of 0.14. Work on UAACAGGGGGCCACAGCAGAAGCGUUCACGCCGCAGCCCCCGUCAGAUUCUGGUGAAUCUGCGCAUUCUGCUGUAUAUCUC [U31C U41C A64C] yielded a self-cleavage of 0.45. Variant UAACAGGGGGCCACAGCAGAAGCGUUCACGCCGCAGCCCCCGUCAGAUUCUGAUGAAUCUGCGAAUUCUGCUGUAUAUCUC [U31C U41C G53A] has a self-cleavage of 0.74. UAACAGGGGGCCACAGCAGAAGCGUUCACGCCGCAGCCCCCGCCAGAUUCUGGUGGAUCUGCGAAUUCUGCUGUAUAUCUC [U31C U41C U43C A56G] showed a self-cleavage of 0.14. With UAACAGGGGGCCACAGCAGAAGCGUUCACGCCGCAGCCCCCGCCAGAUUCUGGUGAAUCUGCGAAUUCUGCUGUAUACCUC [U31C U41C U43C U78C] the self-cleavage was 0.3. Variant UAACAGGGGGCCACAGCAGAAGCGUUCACGCCGCAGCCCCCGUCAGAUUCUGGCGUAUCUGCGAAUUCUGCUGUAUAUCUC [U31C U41C U54C A56U] has a self-cleavage of 0.19. In the case of UAACAGGGGGCCACAGCAGAAGCGUUCACGCCGCAGCCCCCGUCAGAUUCUGGUGAAUCUGCGAACUCUGCUGUAUAUCUC [U31C U41C U66C], the self-cleavage is reported as 0.21. For UAACAGGGGGCCACAGCAGAAGCGUUCACGCCGCAGCCCCCGUCAGAUUCUGGUGAAUCUGCGAACUCUGCUGUAUAUCAC [U31C U41C U66C U80A], the self-cleavage was 0.23. UAACAGGGGGCCACAGCAGAAGCGUUCACGCCGCAGCCCCCGUCAGAUUCUGGUGAAUCUGCGAAUUCUGCUGAACAUCUC [U31C U41C U74A U76C] showed a self-cleavage of 1.23. Variant UAACAGGGGGCCACAGCAGAAGCGUUCACGCCGCAGCCCCGGUCAGAUACUGGUGAAUCUGCGUAUUCUGCAGUAUAUCUC [U31C U41G U49A A64U U72A] has a self-cleavage of 0.12. With UAACAGGGGGCCACAGCAGAAGCGUUCACGCCGCAGCCCCGGUCAGAUUCUGGUGAAUCUGCGAAUUCUGCUGCAUAUCUC [U31C U41G U74C] the self-cleavage was 0.53. In the case of UAACAGGGGGCCACAGCAGAAGCGUUCACGCCGCAGCCCCUGACCGAUUCUGGUGAAUCUGCGAAUUCAGCUGUAUAUCUC [U31C U43A A45C U69A], the self-cleavage is reported as 0.28. UAACAGGGGGCCACAGCAGAAGCGUUCACGCCGCAGCCCCUGACGGAUUCCGGUGAACCUGCGAAUUCUGCUGUAUAUCUC [U31C U43A A45G U51C U58C] showed a self-cleavage of 0.06. UAACAGGGGGCCACAGCAGAAGCGUUCACGCCGCAGCCCCUGACAGAUUCUGGUGAAUCUGCGGAUUCUGCUGUAUAUCUC [U31C U43A A64G] showed a self-cleavage of 0.63. In the case of UAACAGGGGGCCACAGCAGAAGCGUUCACGCCGCAGCCCCUGACAGAUUCUGGUGAAUCUGCGAGUUCUGCUGUAUACCCC [U31C U43A A65G U78C U80C], the self-cleavage is reported as 0.43. UAACAGGGGGCCACAGCAGAAGCGUUCACGCCGCAGCCCCUGACAGAUUCCGGUGAAUCUGCGAAUUCUGCUGUAUAUCUC [U31C U43A U51C] gave a self-cleavage of 0.8. With UAACAGGGGGCCACAGCAGAAGCGUUCACGCCGCAGCCCCUGACAGAUUCCGGUGAACCUGCGAAUUCUGCUGUAUAACUC [U31C U43A U51C U58C U78A] the self-cleavage was 0.24. UAACAGGGGGCCACAGCAGAAGCGUUCACGCCGCAGCCCCUGCCAGUUUCUGGUGAAUCUGCGAAUUCUGCUGUAUAUCUC [U31C U43C A47U] gave a self-cleavage of 0.07. Variant UAACAGGGGGCCACAGCAGAAGCGUUCACGCCGCAGCCCCUGCCAGUUUCUGGUGAAUCCGCGAAUUCUGCUGUAUAUCUC [U31C U43C A47U U60C] has a self-cleavage of 0.09. Variant UAACAGGGGGCCACAGCAGAAGCGUUCACGCCGCAGCCCCUGCCAGAUUCUGGUGAAUCUGCGGAUUCUGCUGUAUAUCUC [U31C U43C A64G] has a self-cleavage of 0.24. UAACAGGGGGCCACAGCAGAAGCGUUCACGCCGCAGCCCCUGCCAGAUUCUGGUGAAUCUGCGAGUUCUGCUGUAUAUCUC [U31C U43C A65G] gave a self-cleavage of 0.19. Work on UAACAGGGGGCCACAGCAGAAGCGUUCACGCCGCAGCCCCUGCGAGGUUCUGGUGAAUCUGCGAAUUCUGCUGUAUAUCUC [U31C U43C C44G A47G] yielded a self-cleavage of 0.21. Variant UAACAGGGGGCCACAGCAGAAGCGUUCACGCCGCAGCCCCUGCCAGAUUAUGGUGAAUCUGCGAAUUCUGCUGUAUAUCUC [U31C U43C C50A] has a self-cleavage of 0.2. In the case of UAACAGGGGGCCACAGCAGAAGCGUUCACGCCGCAGCCCCUGCCAGAUUCUGGAGAAUCUGCGAAUUCUGCUGUAUAUCUC [U31C U43C U54A], the self-cleavage is reported as 0.66. Work on UAACAGGGGGCCACAGCAGAAGCGUUCACGCCGCAGCCCCUGCCAGAUUCUGGUGAAUCCGCGAAUUCUGCUGUAUAUCUC [U31C U43C U60C] yielded a self-cleavage of 0.2. Variant UAACAGGGGGCCACAGCAGAAGCGUUCACGCCGCAGCCCCUGCCAGAUUCUGGUGAAUCUGCGAACUCUGCUGUAUAUCUC [U31C U43C U66C] has a self-cleavage of 0.46. For UAACAGGGGGCCACAGCAGAAGCGUUCACGCCGCAGCCCCUGGCAGAUUCUGGUGAAUCUGCGAAUUCUGCUGUAUAUCCC [U31C U43G U80C], the self-cleavage was 0.38. Work on UAACAGGGGGCCACAGCAGAAGCGUUCACGCCGCAGCCCCUGUCAGACUCUGGUGAAUCUGCGGAUUCUGCUGUAUAUCUC [U31C U48C A64G] yielded a self-cleavage of 0.16.
